Whole data set: some 81,000 sequences, median “one-hybrid fitness for binding parS DNA” near -0.17, cut for the highest 2% near 0.51. This is one part of the list.
B1: Caulobacter ParB omega fusion; a variant is named by its letters at X, in order, B8GW30 (parent)
chain: MESVVVGEPGMSEGRRGLGRGLSALLGEVDAAPAQAPGEQLGGSREAPIEILQRNPDQPRRTFREEDLEDLSNSIREKGVLQPILVRPSPDTAGEYQIVAGERAWRAAQRAGLKTVPIMVRELDDLAVLEIGIIENVQRADLNVLEEALSYKVLMEKFERTQENIAQTIGKSXSHVANXMRLLXLPDEVQSYLVSGELTAXHARAIAAAADPVALAKQIIEGGLSVRETEALARKAPNLSAGKSKGGRPPRVKDTDTQALESDLSSVLGLDVSIDHRGSTGTLTITYATLEQLDDLCNRLTRGI

Variants of: B1
Test: one-hybrid fitness for binding parS DNA (scaled: cognate 1, non-cognate 0); higher = stronger binding
Conditions: with parS DNA site
Outline: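 Caulobacter ParB libraries with four specificity codons randomised were screened by bacterial one-hybrid selection in the E. coli USO strain, using a HIS3 reporter whose site lies 19 bp from the promoter. Selection ran for 48 hours at 37°C on M9 lacking histidine, with 0.1 mM IPTG and 5 mM 3-AT. Plasmids were Illumina-sequenced before and after selection, three replicate libraries were pooled, and variants with under 10 reads were dropped. Fitness is the log change in each variant's read ratio to wild type, rescaled against the cognate and non-cognate sites.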

one-hybrid fitness for binding parS DNA, ≤ 0.2:
RQPP
HPCF
EGKW
IMNW
GDER
SFQM
QMPC
PCIL
CVYT
DGSG
RMFI
GPTF
EAAW
PSNY
TNIT
CHSN
TLFI
CGCT
KRQD
THLP
VYEP
QTRC
TFKR
PGKI
IPGI
RYFV
MPNK
LDLD
TWYM
AEPG
QDMT
YKCT
QFRR
KQNR
AKHL
QGWG
STHT
NEQT
IRLL
KKQA
SERY
HATK
TNMR
YGRH
KTPW
WSFG
PRTA
NVPC
AYVV
TCDY
PTAQ
KSPP
KHNY
QTCP
VYTR
LTPD
HLPY
DYHT
SKYF
RRHL
DDML
GCNM
VGGT
IAKM
YRGN
TGLC
PTSP
QMVC
YDRW
HAYM
ASLM
CFND
LFPA
RTSR
MIKR
QNSH
QTDH
PMHS
ITER
TTCG
YMNL
CAGE
GCPV
ITCG
DCMG
YYNR
VQIL
QNIA
TSEE
SSEL
TVPV
LPCK
ERSY
EVIG
EILV
KLSR
NQSI
VLKG
QVWG
HCIL
WRSA
PLGE
KRNC
HGWF
PHEL
YVGA
CRHN
SQLM
YKDH
LCAK
DHRK
CPYC
VASD
RPEW
DAHN
RAWI
LASE
EDIG
NIMG
FSVS
YPYF
YHPL
SHKL
KFKS
PMYW
WQYS
GPRS
PPTL
NIAE
NKRC
CNVF
IDYT
ITDC
WANG
VGTS
RRMP
KMLN
AQFA
LMFC
DAWG
VRLL
IDQY
IVTG
LEWW
TGCS
DASV
IILP
EVTN

one-hybrid fitness for binding parS DNA, 0.203:
RIYP

one-hybrid fitness for binding parS DNA, 0.877:
RCDC

one-hybrid fitness for binding parS DNA, 0.307:
FRKH

one-hybrid fitness for binding parS DNA, 0.286:
RQWN

one-hybrid fitness for binding parS DNA, 0.917:
RVFT
